Source: US20220213213A1 (published 2022)
Blank lines part the entries; values can stand above or below the binder they belong to.

Legend:
[1] = biological target: T1, 5T4-Fc (obtained from Peter L. Stern, University of Manchester) (human, UniProt Q13641 32-355); test: dual ELISA: coated 5T4-Fc, detection with CD137-bio
T1 construct: also called h5T4-Fc; recombinant 5T4; not shown: Fc part not specified
T1 sequence (looked up): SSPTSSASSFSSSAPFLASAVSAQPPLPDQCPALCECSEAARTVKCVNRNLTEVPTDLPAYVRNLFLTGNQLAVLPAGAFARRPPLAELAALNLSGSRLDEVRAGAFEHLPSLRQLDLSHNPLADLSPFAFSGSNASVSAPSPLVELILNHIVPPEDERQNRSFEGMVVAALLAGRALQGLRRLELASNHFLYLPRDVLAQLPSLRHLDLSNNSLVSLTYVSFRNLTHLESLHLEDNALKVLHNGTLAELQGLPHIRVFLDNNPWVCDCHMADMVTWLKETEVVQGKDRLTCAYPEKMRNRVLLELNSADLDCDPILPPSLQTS
Experimental: Plates (#655074, Greiner Bio-One GmbH, Germany) were pre-coated with 0.5 μg/ml 5T4-Fc (obtained from Professor Peter Stern, University of Manchester) overnight. CD137-5T4 bsAb were diluted from 8 to 2×10⁻³ μg/ml in 1:4 dilutions and added in duplicates of 50 μl to each well. CD137-bio (Ancell #502-030) was used as detection antibody at 0.5 μg/ml and the binding was detected with Streptavidin-HRP (Pierce #21126). The ELISA was developed with SuperSignal ELISA PICO Chemiluminescent substrate (Thermo Scientific Pierce, Rockford, Ill. USA) during 2-10 minutes and read in an automated microplate based multi-detection reader (FLUOstar OPTIMA, Netherlands).

[2] = biological target: biotinylated CD137 (UniProt Q07011 24-186, limits assumed, biotinylated); test: SPR MASS-1, biotinylated antigen on chip, bsAb injected
UniProt Q07011, sequence (Q07011 24-186 limits assumed): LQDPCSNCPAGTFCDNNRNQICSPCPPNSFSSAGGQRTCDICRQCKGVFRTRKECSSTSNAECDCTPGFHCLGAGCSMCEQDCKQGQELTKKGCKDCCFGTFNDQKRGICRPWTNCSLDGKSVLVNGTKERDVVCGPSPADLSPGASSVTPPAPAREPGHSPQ

[3] = biological target: T2, 5T4 on the SPR chip (amine-coupled on Biacore; biotinylated on MASS-1) (UniProt Q13641 32-355, limits assumed, biotinylated in the MASS-1 assays); test: as above
T2 construct: also called biotinylated 5T4
T2 sequence (looked up): T1 sequence (looked up)

EC50 [1]: 570 pM
B1: 1212-1202 (bispecific antibody)
heavy: EVQLLESGGGLVQPGGSLRLSCAASGFTFSSYAMSWVRQAPGKGLEWVSYISSYGGYTSYADSVKGRFTISRDNSKNTLYLQMNSLRAEDTAVYYCARYHSGVLDYWGQGTLVTVSS[no letters for human IgG1 constant region with changes]GGGGSGGGGSEVQLLESGGGLVQPGGSLRLSCAASGFTFYGSSMSWVRQAPGKGLEWVSSIYYGSSGTYYADSVKGRFTISRDNSKNTLYLQMNSLRAEDTAVYYCARSYYGYFDYWGQGTLVTVSSGGGGSGGGGSGGGGSDIQMTQSPSSLSASVGDRVTITCRASQSISSYLNWYQQKPGKAPKLLIYAASSLQSGVPSRFSGSGSGTDFTLTISSLQPEDFATYYCQQYYTVVPFTFGQGTKLEIK
light: DIQMTQSPSSLSASVGDRVTITCRASQSISSYLNWYQQKPGKAPKLLIYAASSLQSGVPSRFSGSGSGTDFTLTISSLQPEDFATYYCQQYYYHYLLTFGQGTKLEIKRTVAAPSVFIFPPSDEQLKSGTASVVCLLNNFYPREAKVQWKVDNALQSGNSQESVTEQDSKDSTYSLSSTLTLSKADYEKHKVYACEVTHQGLSSPVTKSFNRGEC

EC50 [1]: 790 pM
B2: 1212-1214 (bispecific antibody)
heavy: EVQLLESGGGLVQPGGSLRLSCAASGFTFSSYAMSWVRQAPGKGLEWVSYISSYGGYTSYADSVKGRFTISRDNSKNTLYLQMNSLRAEDTAVYYCARYHSGVLDYWGQGTLVTVSS[no letters for human IgG1 constant region with changes]GGGGSGGGGSEVQLLESGGGLVQPGGSLRLSCAASGFTFSSYAMSWVRQAPGKGLEWVSSIGSGGGYTGYADSVKGRFTISRDNSKNTLYLQMNSLRAEDTAVYYCARVGHPFDYWGQGTLVTVSSGGGGSGGGGSGGGGSDIQMTQSPSSLSASVGDRVTITCRASQSISSYLNWYQQKPGKAPKLLIYAASSLQSGVPSRFSGSGSGTDFTLTISSLQPEDFATYYCQQDAYPHTFGQGTKLEIK
light: B1 light

EC50 [1]: 270 pM
B3: 1212-1204 (bispecific antibody)
heavy: EVQLLESGGGLVQPGGSLRLSCAASGFTFSSYAMSWVRQAPGKGLEWVSYISSYGGYTSYADSVKGRFTISRDNSKNTLYLQMNSLRAEDTAVYYCARYHSGVLDYWGQGTLVTVSS[no letters for human IgG1 constant region with changes]GGGGSGGGGSEVQLLESGGGLVQPGGSLRLSCAASGFTFSSYYMGWVRQAPGKGLEWVSGIGSYYGYTGYADSVKGRFTISRDNSKNTLYLQMNSLRAEDTAVYYCARAYYDYNYYYAYFDYWGQGTLVTVSSGGGGSGGGGSGGGGSDIQMTQSPSSLSASVGDRVTITCRASQSISSYLNWYQQKPGKAPKLLIYAASSLQSGVPSRFSGSGSGTDFTLTISSLQPEDFATYYCQQSVPHYPFTFGQGTKLEIK
light: B1 light

Kd [2]: 129 pM
koff [2]: 0.000162 s⁻¹
kon [2]: 1.26e+06 M⁻¹ s⁻¹
Kd [3]: 937 pM
koff [3]: 0.000455 s⁻¹
kon [3]: 486000 M⁻¹ s⁻¹
EC50 [1]: 200 pM
B4: 1618-1210 (bispecific antibody)
heavy: EVQLLESGGGLVQPGGSLRLSCAASGFTFSYGSMYWVRQAPGKGLEWVSSISSGSGSTYYADSVKGRFTISRDNSKNTLYLQMNSLRAEDTAVYYCARSSYYGSYYSIDYWGQGTLVTVSS[no letters for human IgG1 constant region with changes]GGGGSGGGGS[no letters for about 100 residues]YYGGYYSAWMDYWGQGTLVTVSSGGGGSGGGGSGGGGSDIQMTQSPSSLSASVGDRVTITCRASQSISSYLNWYQQKPGKAPKLLIYAASSLQSGVPSRFSGSGSGTDFTLTISSLQPEDFATYYCQQTYGYLHTFGQGTKLEIK
light: DIQMTQSPSSLSASVGDRVTITCRASQSISSYLNWYQQKPGKAPKLLIYAASSLQSGVPSRFSGSGSGTDFTLTISSLQPEDFATYYCQQYYDNLPTFGQGTKLEIKRTVAAPSVFIFPPSDEQLKSGTASVVCLLNNFYPREAKVQWKVDNALQSGNSQESVTEQDSKDSTYSLSSTLTLSKADYEKHKVYACEVTHQGLSSPVTKSFNRGEC

Kd [2]: 116 pM
koff [2]: 0.000109 s⁻¹
kon [2]: 940000 M⁻¹ s⁻¹
B5: 1618-1208 (bispecific antibody)
chain 1: not shown
chain 2: B4 light
